According to publication PMC4336329 (PLoS ONE, 2015):
Out of some 310,000 compounds screened, about 2,200 (0.71%) showed an effect of 50% or more. Effects have a minus sign here. The list shows a part of the results.

What follows are compounds tested against human ether-à-go-go-related gene (hERG) potassium channel (human, UniProt Q12809) (assay: primary screen, population patch clamp on CHO cells stably expressing hERG).
Chain of human ether-à-go-go-related gene (hERG) potassium channel (Q12809 whole entry, looked up): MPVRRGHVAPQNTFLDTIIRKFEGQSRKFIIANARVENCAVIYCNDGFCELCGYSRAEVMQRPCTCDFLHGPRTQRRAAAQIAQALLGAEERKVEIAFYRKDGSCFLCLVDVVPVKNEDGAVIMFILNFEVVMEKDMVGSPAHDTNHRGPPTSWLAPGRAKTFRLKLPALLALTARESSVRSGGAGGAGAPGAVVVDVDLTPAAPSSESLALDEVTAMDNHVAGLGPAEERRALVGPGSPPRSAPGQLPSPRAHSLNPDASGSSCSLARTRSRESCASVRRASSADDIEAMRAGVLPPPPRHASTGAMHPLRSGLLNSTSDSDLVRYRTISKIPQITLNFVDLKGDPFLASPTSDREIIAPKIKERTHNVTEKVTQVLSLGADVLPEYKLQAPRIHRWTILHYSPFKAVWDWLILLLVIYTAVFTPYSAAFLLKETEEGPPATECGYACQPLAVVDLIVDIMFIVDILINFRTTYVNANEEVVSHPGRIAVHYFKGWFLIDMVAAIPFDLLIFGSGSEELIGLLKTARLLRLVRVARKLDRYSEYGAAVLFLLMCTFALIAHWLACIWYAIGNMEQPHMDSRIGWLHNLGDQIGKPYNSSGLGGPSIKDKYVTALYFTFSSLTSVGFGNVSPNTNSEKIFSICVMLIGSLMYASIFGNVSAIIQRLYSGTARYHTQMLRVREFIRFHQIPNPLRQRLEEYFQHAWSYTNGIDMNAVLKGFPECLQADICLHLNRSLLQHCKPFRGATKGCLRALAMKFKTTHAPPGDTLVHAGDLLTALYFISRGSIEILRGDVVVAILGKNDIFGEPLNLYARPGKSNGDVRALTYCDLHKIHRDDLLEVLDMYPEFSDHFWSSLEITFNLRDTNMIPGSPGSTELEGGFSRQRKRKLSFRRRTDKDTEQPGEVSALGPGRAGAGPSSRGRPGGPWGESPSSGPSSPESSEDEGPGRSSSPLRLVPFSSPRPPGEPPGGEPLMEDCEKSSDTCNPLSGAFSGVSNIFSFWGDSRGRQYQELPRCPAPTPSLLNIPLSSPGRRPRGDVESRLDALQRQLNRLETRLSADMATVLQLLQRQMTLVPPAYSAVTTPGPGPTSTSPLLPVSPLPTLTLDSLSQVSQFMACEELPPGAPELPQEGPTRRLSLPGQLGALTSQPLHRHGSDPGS

Row | SMILES | hERG current change (%, negative = inhibition) at 1uM [%]
1 | CC(NC(=O)C(=O)N/N=C\c1ccc([N+](=O)[O-])cc1)c1ccccc1 (centres unmarked) | 19.6
2 | CCn1c(C(O)c2cc(OC)c(OC)c(OC)c2)nc2ccccc21 (centres unmarked) | 8.37
3 | C/C(CC(=O)Nc1ccc(N(C)C)cc1)=N\NC(=O)Cc1csc(N)n1 | 4.59
4 | C=CCn1c(SCC)nc2sc3c(c2c1=O)CCc1ccccc1-3 | 3.16
5 | O=C(CCc1ccccc1)NC1(Cc2ccccc2)CCN(CCc2cccs2)C1=O (centres unmarked) | 11.4
6 | Cn1cccc1CC(=O)N/N=C\c1c2ccccc2cc2ccccc12 | -3.5
7 | O=C(Sc1nnc(-c2ccccc2)o1)N1c2ccccc2Sc2ccccc21 | 7.97
8 | O=C(N1CCC(n2nc(-c3ccccc3)oc2=O)CC1)C1(c2ccc(Cl)cc2)CC1 | 7.63
9 | Cc1cccc(C)c1NC(=S)N(CCCN1CCN(C)CC1)Cc1cccs1 | -9.81
10 | O=C(CSc1nc2[nH]ncc2c(=O)n1-c1ccccc1)N1CCCc2ccccc21 | 3.67
11 | COCCNC(=O)/C(C#N)=C/c1cccc(/C=C(\C#N)C(=O)NCCOC)c1 | 14.7
12 | COc1ccc(S(=O)(=O)N2CCN(C(=O)CC3CC4CCC3C4)CC2)cc1 (centres unmarked) | 8.51
13 | COCCCNC(=O)c1ccc2c(=O)n(Cc3ccccc3OC)c(=S)[nH]c2c1 | 13.1
14 | CN(C)CCOc1nc(-c2ccccc2)nc2c1oc1ccccc12 | -3.96
15 | Cc1sc(NC(=O)c2cccc([N+](=O)[O-])c2)c(C(N)=O)c1-c1ccc(C(C)(C)C)cc1 | 2.8
16 | COc1ccccc1CNC(=O)c1ccc2ccccc2n1 | 17.8
17 | CCOc1ccc(N2CC(C(=O)NCCC3=CCCCC3)CC2=O)cc1 (centres unmarked) | 2.73
18 | CCN(CC)S(=O)(=O)c1ccc(OC)c(NC(=O)c2cc([N+](=O)[O-])ccc2Cl)c1 | 13.7
19 | Cc1cccc(N2CN(Cc3cccnc3)CNC2=S)c1 | 10.2
20 | CCN(CC)CCNC(=O)Cn1nc(-c2ccccc2)c2ccccc2c1=O | -5.24
21 | O=C(CCSCCc1ccccn1)Nc1c(F)cc(F)cc1Br | 7.94
22 | Fc1ccc(-n2c(-c3cccs3)nc3nc4ccccc4nc32)cc1 | 12.6
23 | COc1ccc(-c2cc(C)no2)cc1S(=O)(=O)Nc1ccc(NC(C)=O)cc1 | 7.97

Row | SMILES | hERG current change (%, negative = inhibition) at 1uM [%]
24 | CCOc1ccc(NC(=O)CN2C(=O)COc3ccc(Cl)cc32)cc1 | 2.32
25 | O=C1CC(c2ccco2)Cc2c1cnn2-c1nc2ccccc2s1 (centres unmarked) | 9.9
26 | COc1ccc(NC(=O)CCn2cc(C)c3ccccc32)cc1 | 6.61
27 | O=C1CCCC2=C1C1(CCCC1)N=C(Nc1nc3ccccc3s1)N2 | -5.45
28 | CC1(C)CC(=O)c2cnc(N3CCc4ccccc4C3)nc2C1 | 5.49
29 | Brc1ccc(OCCn2ccnc2)cc1 | 10.8
30 | C(=C\c1nnc(-c2cccs2)o1)/c1ccccc1 | 8.47
31 | COCCNC(=O)C(=O)NNC(=O)c1ccccc1OC | 12.5
32 | Cc1ccc(NC(=O)c2ccccc2OCc2ccc([N+](=O)[O-])cc2)nc1 | 10.2
33 | COc1ccc(S(=O)(=O)N2CCN(CC3CC=CCC3)CC2)cc1 (centres unmarked) | 12
34 | Cc1nn(C(C)C(=O)O)c(=O)c2c1sc1ccccc12 (centres unmarked) | 2.43
35 | OC1(c2ccc(Cl)cc2)CCN(Cc2nc(-c3cnccn3)no2)CC1 | 1.58
36 | COc1cccc(N2CCN(CC(=O)Nc3ccccc3C(=O)NCCc3ccccc3)CC2)c1 | 44.7
37 | Cn1cc(/C=C2\SC(=S)N(NC(=O)c3ccccc3)C2=O)c2ccccc21 | 14.2
38 | Cc1ccc2nc(N3CCN(Cc4nnnn4C4CCCC4)CC3)c(C#N)cc2c1 | -0.792
39 | CCCc1cc(=O)oc2cc(OCC(=O)NCCCN3CCOCC3)c(Cl)cc12 | -10.3
40 | CCOc1ccccc1N(CC(=O)O)S(=O)(=O)c1ccc(C)cc1 | 15
41 | COC(=O)C(C(=O)OC)C(C[N+](=O)[O-])c1ccc(O)c(OC)c1 (centres unmarked) | 2.6
42 | CCOC(=O)NC(=O)COC(=O)CNC(=O)c1cccc(OC)c1 | 10.1
43 | COc1ccc(C(=O)N/N=C/C2CC=CCC2)cc1OC (centres unmarked) | 7.93
44 | Clc1ccc(OCc2nnc3n2CCCCC3)c(Cl)c1 | 0.0126
45 | Cc1ccc(SCc2ccc(C(=O)Nc3cccc([N+](=O)[O-])c3)cc2)cc1 | 9.54
46 | CN1C(=O)Cc2cc(S(=O)(=O)N3CCN(c4cccc(Cl)c4)CC3)ccc21 | 16.1

Row | SMILES | hERG current change (%, negative = inhibition) at 1uM [%]
47 | COC(=O)c1sccc1NC(=S)N1CCCC(C)C1 (centres unmarked) | 11.5
48 | CCOC(=O)c1cc(C(=O)OCC)c2ccccn2c1=O | 8.96
49 | CC1CN(C(=O)COc2ccc3ccccc3c2Br)CC(C)O1 (centres unmarked) | 9.61
50 | CCc1ccc(N2C(=O)CC(NNc3nc4ccccc4s3)C2=O)cc1 (centres unmarked) | 8.71
51 | COc1ccccc1CNC(=O)CC1C(=O)NCCN1C1Cc2ccccc2C1 (centres unmarked) | 14
52 | Cc1csc(NC(=O)CCNS(=O)(=O)c2ccc3c(c2)c(=O)n(C)c(=O)n3C)n1 | 18.7
53 | COc1ccc(-c2sccc2C(C)C(=O)O)cc1 (centres unmarked) | 13.7
54 | O=C(CNC(=O)c1cccs1)NCCN1CCN(c2ccccc2F)CC1 | 6.11
55 | COc1ccc(N2CCOCC2)c(NC(=O)c2cccs2)c1 | -3.22
56 | Cc1ccc(NNC(=O)Nc2ccc(Cl)cc2)nn1 | 13.1
57 | O=C(Nc1ccc(Oc2cccnc2)cc1)c1ccccc1F | -1.67
58 | COc1ccccc1NS(=O)(=O)c1cc(C(=O)NCC(c2cccs2)N2CCOCC2)ccc1C (centres unmarked) | 1.69
59 | Cc1ccc(OCCC(=O)OCC(=O)NC(=O)c2ccccc2)cc1 | 14.1
60 | COc1ccccc1NC(=O)Nc1c(C)n(C)n(-c2ccccc2)c1=O | -7.18
61 | Oc1c(C=C2N=c3ccccc3=N2)sc(=S)n1-c1ccccc1 | 17.7
62 | O=C(NCc1ccco1)C(=O)NCC1OCCN1S(=O)(=O)c1ccccc1 (centres unmarked) | 5.95
63 | Cc1ccc(S(=O)(=O)N2CCC(C(=O)N[C@H](C(=O)NCc3ccco3)C(C)C)CC2)cc1 | -0.918
64 | COc1ccc(C2CC(c3ccc(OC)cc3)n3nc(N)nc3N2)cc1 (centres unmarked) | 4.23
65 | Cc1ccc(NC(=O)c2cc(C)on2)cc1 | 6.42
66 | O=C(COC(=O)c1cccnc1Cl)Nc1ncc(Cl)cc1Cl | 4.88
67 | Cc1onc(-c2ccccc2Cl)c1C(=O)NCc1ccco1 | 10.2
68 | O=C(NC1CCCCCC1)c1cc2ccccc2oc1=O | 14.4
69 | O=C(CCCCl)Nc1c2c(nn1-c1ccccc1)CSC2 | 15.3

Row | SMILES | hERG current change (%, negative = inhibition) at 1uM [%]
70 | Cc1ccc(-n2c(SCc3nc4ccccc4c(=O)[nH]3)nnc2-c2ccccc2O)cc1 | -3.43
71 | OCCC1CN(CCCc2ccccc2)CCN1Cc1ccc(F)cc1 (centres unmarked) | -12.1
72 | COc1ccc(CCNCc2ccccc2F)cc1.O=C(O)C(=O)O | -7.49
73 | CC(=O)c1c(C)[nH]c(C(=O)OCC(=O)NCCCc2ccccc2)c1C | -0.308
74 | CCCCOCCCNC(=O)c1ccc(NC(C)=O)cc1 | 1.07
75 | Cc1ccccc1NC(=O)/C(C#N)=C\c1cc(C)n(-c2ccc(C(=O)O)cc2)c1C | 11.7
76 | COCCC(=O)N1CCc2ccc(NC(=O)c3ccc(C(F)(F)F)cc3)cc2C1 | 3.67
77 | Cc1cccc(C)c1NC(=O)CSc1nnc(Cn2nnc(-c3ccccc3)n2)n1-c1ccccc1 | -15
78 | CCC1Nc2ccccc2-c2nnc(SC)nc2O1 (centres unmarked) | 5.26
79 | CC(C)CN(C(=O)COC(=O)c1ccc2ccccc2c1)c1c(N)n(Cc2ccccc2)c(=O)[nH]c1=O | -2.87
80 | COC(=O)c1cccc(NC(=O)CN2C(=O)c3ccccc3C2=O)c1 | 6.13
81 | Cc1cc(C)cc(OC(C)c2ccnc3nc(/N=C/N(C)C)nn23)c1 (centres unmarked) | 19.4
82 | Cc1cccc(CN2C(=O)CSc3ccc(C(=O)NC4CC4)cc32)c1 | 6.03
83 | Cn1c(-c2ccc(F)cc2)cnc1NCc1ccccc1F.O=C(O)C(=O)O | -1.7
84 | N#CCN1C(=S)N=C(Nc2cccc(Cl)c2)C12CCCCC2 | 2.49
85 | CC(=O)Nc1ccc(C(=O)COC(=O)c2c(C)noc2C)c(F)c1 | 3.59
86 | O=C(N/N=C/c1cccnc1)c1cc2ccccc2o1 | 3.33
87 | Cn1nnnc1Sc1ncnc2scc(-c3ccc(F)cc3)c12 | -4.85
88 | CCOC(=O)C1CCN(C(=O)C(C)c2ccc([N+](=O)[O-])cc2)CC1 (centres unmarked) | 7.01
89 | Cc1cccc(CN2CCN(c3ncccn3)CC2)c1 | 9.11
